The test system of assay [1] is protein translation in rabbit reticulocyte lysate. Put plainly: Rescue of RM-A-inhibited in vitro translation by C-terminal truncated ScIleRS or its variants. To be noted: replicates I-III.
The test system is the same in assay [2]. In words: Rescue of RM-A-inhibited in vitro translation by C-terminal truncated human IleRS or its variants. To be noted: replicates I-III.

Where “and” joins values, the source holds several entries; their conditions need not be identical. Equal values may be shown once. The source gives many values for each of these; only a part stands here.

Take `CCCC[C@@]1(OC(=O)CCC(=O)O)CC[C@]2(CC[C@H](C)[C@@H](C/C=C(C)/C=C/[C@H](O)[C@@H](C)/C=C/C(=O)O)O2)O[C@H]1/C=C/C(C)=C/C(=O)O` [RM-A, reveromycin A]: the “Luciferase luminescence, 200 nM RM-A” value is 78179.8 and 76352.9 and 75473.4 in assay [1] (1 μM C-terminal truncated ScIleRS Wild-type); 71731.8 and 72721.8 and 84326 in assay [1] (1 μM ScIleRS W449A); 154.893 and 36.04 in assay [1] (3 μM LeuRS (control)); 63.694 and 118.486 and 52.672 in assay [1] (No enzyme); 83295.7 and 163450 and 116055 in assay [2] (1 μM C-terminal truncated human IleRS Wild-type); 1455.34 and 289.807 and 8585.61 in assay [2] (1 μM human IleRS R453A). The “Luciferase luminescence, 200 nM RM-A” value in assay [2] (1 μM human IleRS R459A) is 215.606 and 54.339 and 171.532; in assay [2] (1 μM human IleRS R461A), 22081.7 and 40970.4 and 33727.3; in assay [2] (1 μM human IleRS W455A), 44.02 and 35.857 and 26.326; in assay [2] (1 μM human IleRS W527A), 70.431 and 17.709 and 43.876; in assay [2] (1 μM human IleRS Y569A), 5696.14 and 3316.79 and 2966.03; in assay [2] (3 μM C-terminal truncated human IleRS Wild-type) it was 201224 and 199022 and 204709. The “Luciferase luminescence, 200 nM RM-A” value in assay [2] (3 μM human IleRS R453A) was 123651 and 133594 and 140568; in assay [2] (3 μM human IleRS R459A) it was 1971 and 1393.87 and 1621.8; in assay [2] (3 μM human IleRS R461A), 177488 and 173104 and 175565; in assay [2] (3 μM human IleRS W455A), 26.49 and 178.701 and 79.582; in assay [2] (3 μM human IleRS W527A), 17.66 and 70.739 and 44.212; in assay [2] (3 μM human IleRS Y569A), 38499 and 38117 and 26032.1. The “Luciferase luminescence, 200 nM RM-A” value in assay [2] (No enzyme) is 62.885 and 54.339 and 63.196.

(Values after paper PMC7955072 (Nature Communications, 2021).)
